Measured values from article PMC3769975 (ChemMedChem, 2012).

Test system: M2 ion channel (synthetic M2 peptide reconstituted in micelles)
Type: binding, influenza A virus

Compound | binding to M2: peak at 10.9 ppm (Trp41 Hε) in 1D 1H NMR
CCC(C)(C)n1nnnc1C(C(C)C)N(CCO)Cc1cc2cc(C)c(C)cc2[nH]c1=O (centres unmarked) [Compound 7, 3-(((2-hydroxyethyl)(2-methyl-1-(1-tert-pentyl-1H-tetrazole-5-yl)propyl)amino)methyl)-6,7-dimethylquinolin-2(1H)-one] | no peak formation at 10.9 ppm
NC12CC3CC(CC(C3)C1)C2 [amantadine, reference compound] | new peak rising at 10.9 ppm
